Assay results reported in PubChem BioAssay AID504339 (National Center for Advancing Translational Sciences (NCATS), 2011).
Several values for one entry are separate records, joined by “and”; a condition that tells them apart may be missing. Equal values may be shown once. Screen size: about 390,000 compounds; about 17,000 (4.4%) were called active. Inconclusive results, whose numbers are uncertain, are shown with a selection of clear calls. The call rests on the fitted dose curve; in most records, active means well fitted inhibition curve with a large enough effect; inconclusive means small, poorly fitted or top-dose-only effect; inactive means no such curve, though single readings can be large or run the other way. A potency beside an inconclusive call is a rough fit, not a confirmed value.

biological target: Lysine-specific demethylase 4A (Homo sapiens) (UniProt O75164); test: qHTS Assay for Inhibitors of JMJD2A-Tudor Domain; conditions: AlphaScreen JMJD2A-Tudor / H3K4me3 peptide binding; series mostly up to 114 µM; further: nearly all actives have a fitted effect of over 50% in size
Chain of UniProt O75164 (O75164 whole entry, looked up, the tested form may be a part): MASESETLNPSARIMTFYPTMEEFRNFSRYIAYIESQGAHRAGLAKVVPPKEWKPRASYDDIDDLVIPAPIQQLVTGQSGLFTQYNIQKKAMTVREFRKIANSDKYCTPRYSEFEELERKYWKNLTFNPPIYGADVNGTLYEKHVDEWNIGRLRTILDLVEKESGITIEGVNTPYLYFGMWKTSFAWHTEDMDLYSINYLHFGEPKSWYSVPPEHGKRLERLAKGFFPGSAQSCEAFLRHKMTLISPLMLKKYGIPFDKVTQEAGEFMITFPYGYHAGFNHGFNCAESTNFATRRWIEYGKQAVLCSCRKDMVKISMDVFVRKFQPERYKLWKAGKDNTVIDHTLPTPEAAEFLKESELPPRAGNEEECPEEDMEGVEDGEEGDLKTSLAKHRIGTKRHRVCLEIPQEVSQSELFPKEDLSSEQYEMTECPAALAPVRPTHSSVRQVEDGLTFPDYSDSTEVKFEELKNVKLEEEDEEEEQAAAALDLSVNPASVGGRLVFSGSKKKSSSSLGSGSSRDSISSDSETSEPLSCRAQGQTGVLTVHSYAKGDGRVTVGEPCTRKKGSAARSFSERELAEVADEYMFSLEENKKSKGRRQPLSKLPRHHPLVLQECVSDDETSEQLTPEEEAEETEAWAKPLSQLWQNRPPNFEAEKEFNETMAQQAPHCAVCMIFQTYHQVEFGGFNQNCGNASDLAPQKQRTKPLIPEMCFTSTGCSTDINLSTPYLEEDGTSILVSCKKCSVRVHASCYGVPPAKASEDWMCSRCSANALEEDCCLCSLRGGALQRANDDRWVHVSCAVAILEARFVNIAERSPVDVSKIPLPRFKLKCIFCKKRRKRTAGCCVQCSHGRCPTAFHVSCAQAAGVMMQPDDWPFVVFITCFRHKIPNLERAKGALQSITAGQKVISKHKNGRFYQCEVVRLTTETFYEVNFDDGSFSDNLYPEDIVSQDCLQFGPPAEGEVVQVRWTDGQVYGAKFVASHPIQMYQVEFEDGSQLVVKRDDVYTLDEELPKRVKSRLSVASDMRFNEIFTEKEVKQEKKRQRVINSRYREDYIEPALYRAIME
Potency means the concentration at half of the fitted maximal effect; tags describe the fitted curve by direction and shape.

Potency, active:
O=C(N/N=C/c1cc(Cl)cc([N+](=O)[O-])c1O)c1cccc(S(=O)(=O)N2CCOCC2)c1 39.8 µM
Fc1cccc(CN2CCC(Cc3ccccc3)CC2)c1 56.2 µM
CN1CCN(Cc2oc(CO)cc(=O)c2O)CC1 56.2 µM
CN(C)c1ccc(N/C=C/C(=O)C(C)(C)C)cc1 50.1 µM
CC(=O)NC(c1ccco1)c1ccc2cccnc2c1O (configuration not stated) 56.2 µM
CS(=O)(=O)N(CC(=O)N1CCN(c2ccccc2)CC1)C1CCCCC1 50.1 µM
O=C(NCc1ccc2c(c1)OCO2)C(=O)NC1CCCCC1 50.1 µM
CCCCN=Cc1sc2ccc(OCC)cc2c1O 28.2 µM
CCSc1n[nH]c(=S)s1 20 µM
COc1cc(C=NO)nc(-c2ccccn2)c1 14.1 µM
Cc1ccsc1/C=N/n1c(-c2ccncc2)n[nH]c1=S 3.16 µM
Cc1ccc(NC(=O)c2oc3ccccc3c2NC(=O)C2CCCCC2)cc1 79.4 µM
CC(=O)NCc1ccc(S(=O)(=O)N2CCCN(C)CC2)cc1 25.1 µM
S=c1[nH]nc(C2CCCCC2)n1/N=C/c1ccco1 12.6 µM
Cc1ccsc1CN1CCC(C(=O)NCc2ccccc2Cl)CC1 7.94 µM
COc1ccc(C/C(N)=N/OC(=O)c2ccco2)cc1OC 44.7 µM
Cc1ccc(CN=Cc2[nH]c3ccc(Br)c(Cl)c3c2O)cc1 50.1 µM
O=C(CNCc1cccs1)Nc1ccc(OC(F)(F)F)cc1 3.98 µM

Potency, inconclusive:
COc1cccc(/C=C2/C(=O)NN(c3ccc(Br)cc3)C2=O)c1O 35.5 µM [inhibitor, partial curve]
COC(=O)c1ccc(NS(=O)(=O)c2ccc3[nH]c4c(c3c2)CCCCC4)cc1 50.1 µM [inhibitor, partial curve]
COC(=O)c1ccc(CSc2nnc(C)s2)cc1 3.16 µM [inhibitor, partial curve]
C1=CC2=NC34CCCCC3CC3=C(CCCC3)N4C2=CC1=NC1CCCCC1 (configuration not stated) 56.2 µM [inhibitor, partial curve]
COC(=O)CC1C(=O)NCCN1C(=O)c1ccc2oc(C(C)C)nc2c1 (configuration not stated) 25.1 µM [inhibitor, full curve, poor fit]
Cn1cc[nH]c1=S 31.6 µM [inhibitor, single point] and 31.6 µM [inhibitor, partial curve]
COc1ccc(C2c3[nH]c4ccccc4c3C[C@H]3C(=O)N(C4CCN(Cc5ccccc5)CC4)CC(=O)N23)cc1OC (some centres not stated) 39.8 µM [inhibitor, partial curve]
N#Cc1ccsc1NC(=O)COC(=O)c1ccc(Br)o1 89.1 µM [inhibitor, partial curve]
COC(=O)c1cc(OC)c(OC)cc1NCC(=O)Nc1cccc(C(F)(F)F)c1 39.8 µM [inhibitor, full curve]
COc1ccc(-c2[nH]c(-c3ccc(C)cc3)nc2SCC(=O)NCC2CCCO2)cc1 (configuration not stated) 56.2 µM [inhibitor, partial curve]
CCn1cc(/C=C(\NC(=O)c2ccc(C)cc2)C(=O)NCCN2CCOCC2)c2ccccc21 31.6 µM [inhibitor, partial curve]
CC(C)=CCc1cc([C@@H]2CC(=O)c3ccc(O)c(CC=C(C)C)c3O2)ccc1O 56.2 µM [inhibitor, partial curve]
Cc1ccc2scc(N3CCCC(C)C3)c(=O)c2c1 (configuration not stated) 56.2 µM [inhibitor, partial curve]
CN(C)CCCNC(=O)/C(=C\C=C\c1ccccc1)NC(=O)c1ccc([N+](=O)[O-])cc1 17.8 µM [inhibitor, full curve, poor fit]
CC(O)c1n(C)c(Cl)c[n+]1C (configuration not stated) 25.1 µM [inhibitor, partial curve]
CC(=O)Nc1ccc(Oc2ccc([N+](=O)[O-])cc2Cl)cc1 39.8 µM [inhibitor, single point]
O=c1oc2ccc(Cl)cc2cc1-c1nc(-c2cccs2)no1 79.4 µM [inhibitor, partial curve]
CCN(CC)CCN1C(=O)C(=O)/C(=C(/O)c2c(C)[nH]c(C(=O)OC)c2C)C1c1ccco1 (configuration not stated) 50.1 µM [inhibitor, partial curve]
Cc1ccccc1N=C1c2cc([N+](=O)[O-])ccc2-c2ncccc21 25.1 µM [inhibitor, full curve]
CCn1c2ccccc2c2cc(Nc3cc(C)nc4ncnn34)ccc21 39.8 µM [inhibitor, full curve]
CCC(C)Sc1cccc(-c2nc3ccc(C)cn3c2NCc2ccccc2)c1 (configuration not stated) 44.7 µM [inhibitor, partial curve]
CCCC12CN3CC(CCC)(CN(C1)C3c1c[nH]c3ccc(OC)cc13)C2=O (configuration not stated) 31.6 µM [inhibitor, partial curve]
CCOc1ccccc1CNC(=O)CCc1cn(C)c2ccccc12 56.2 µM [inhibitor, partial curve]
COc1cc2c(cc1OC)CN(C(=O)COc1ccccc1C#N)CC2 89.1 µM [inhibitor, partial curve]
CN(C)CCCN(C(=O)c1ccc2c(c1)CCCC2)c1nc2cc3c(cc2s1)OCO3 50.1 µM [inhibitor, partial curve]
c1ccc(C[C@H]2CNCCN2CCCCC2CCCCC2)cc1 50.1 µM [inhibitor, partial curve]
COC(=O)C1CCN(C2=C(NS(=O)(=O)c3ccc(Cl)cc3)C(=O)c3ccccc3C2=O)CC1 3.16 µM [inhibitor, partial curve]
O=C(NNS(=O)(=O)c1ccccc1)C1CC(c2cccnc2)=NO1 (configuration not stated) 28.2 µM [inhibitor, single point]
CCc1ccc(N=Nc2ccc(O)c3[nH]cnc23)cc1 3.98 µM [inhibitor, full curve]
Cc1c(CCC(=O)N[C@@H](CC(C)C)C(=O)O)c(=O)oc2c(C)c3oc4c(c3cc12)CCCC4 20 µM [inhibitor, full curve, poor fit]
COc1cc(OC)c(NC(=O)CCc2nc(C3=CCN(Cc4cccc(Cl)c4)CC3)no2)cc1Cl 56.2 µM [inhibitor, partial curve]
CC(=O)N1N=C(c2ccc(Cl)cc2)OC1c1ccc(C(C)C)cc1 (configuration not stated) 100 µM [inhibitor, single point]
CN(C)c1ccc(C(=S)NCc2ccco2)cc1 56.2 µM [inhibitor, partial curve]
O=C(NNS(=O)(=O)c1cccc(Cl)c1Cl)c1cccc(S(=O)(=O)N2CCOCC2)c1 3.16 µM [inhibitor, partial curve]
C=CCN1C=C2C(=O)C(C)(OC(=O)CCC(=O)OC)C(=O)C(Br)=C2C=C1c1ccc(OC)cc1 (configuration not stated) 56.2 µM [inhibitor, partial curve]

Potency, inactive:
O=[N+]([O-])c1cccc(S(=O)(=O)NCCOc2cccc3cccnc23)c1
CC1Sc2ccc(S(=O)(=O)CCC(=O)NCc3ccc(Cl)cc3)cc2NC1=O (configuration not stated)
CCCCn1nc(C(=O)NC2CCCCCC2)c2ccccc2c1=O
CC1=NS(=O)(=O)c2cc(Cl)ccc2N1
O=C(NCc1ccc2c(c1)OCO2)c1ccc2c(c1)OCO2
O=[N+]([O-])c1cc([N+](=O)[O-])c2cc3ccccc3nc2c1
Cc1nn(C)c(C(=O)N/N=C/c2cc3c(cc2Br)OCO3)c1Br
O=C(c1ccc2c(c1)[nH]c(=S)n1c3ccccc3nc21)N1CCN(c2cccc(Cl)c2)CC1
Cc1ccc(-n2nc3c(N4CCCC(C(=O)NCc5ccccc5C)C4)nnc(C)c3c2C)cc1 (configuration not stated)
CCOC(=O)c1cc2c(=O)n3ccccc3nc2n(CCCOC)c1=NC(=O)c1cc2ccccc2o1
O=C(/C=C/c1ccc2c(c1)OCCO2)c1ccccc1
CC(=O)c1ccc(NC(=O)CN2CCC(C(=O)c3ccc(F)cc3)CC2)cc1
O=C(CCN1C(=O)c2ccccc2S1(=O)=O)NCc1ccccc1Cl
CCOC(=O)c1ccc(OCCOc2cccc(C)c2)cc1
O=C1C2C3C=CC(C3)C2C(=O)N1CCCCN1C(=O)C2C3C=CC(C3)C2C1=O (configuration not stated)
COc1ccc(-c2cc3nc4c(c(=O)n3[nH]2)CCC4)cc1
CC(=O)Nc1cc(C)ns1
Cc1cccc(N2CCN(C(=O)CS(=O)(=O)Cc3nc(-c4ccccc4F)oc3C)CC2C)c1 (configuration not stated)
N=c1ccn2c(n1)OC1C(O)[C@@H](CO)O[C@H]12 (some centres not stated)
OCc1ccc(OCCCOc2cccc3cccnc23)cc1
Cc1cccc(Nc2nnc(SCC(=O)c3ccc(O)cc3O)s2)c1
CC1CCN(c2[nH]c(=S)c(C#N)c3c2CCCC3)CC1
O=C(Nc1ccc(C(=O)O)cc1)/C(=C\C=C\c1ccccc1)NC(=O)c1cccc(Br)c1
CCCN1C(=O)/C(=C2\SC(=S)N(c3c(C)n(C)n(-c4ccccc4)c3=O)C2=O)c2ccccc21
